Results reported in the supplement of paper PMC5499739.
The full ranking holds about 16,000 sequences; the median of “Z-score” is about -0.37, and the highest 2% start at about 3.2. Some of the results follow.

Each sequence was assayed on RBM10 RRM1-ZnF (GST-tagged construct) (assay: RNAcompete 7-mer binding Z-score; higher = stronger binding preference).
Procedure: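 RNAcompete: 20 pmol GST-tagged RBM10 RNA-binding constructs were incubated with a designed RNA pool of about 241,000 sequences up to 41 nt (1.5 nmol) on glutathione beads for 30 min at 4 °C and washed. Bound RNAs were identified by microarray hybridisation. Each RNA 7-mer is scored by a one-sided Z-score of its enrichment, computed over probes that contain the 7-mer within longer pool sequences.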

Row | Sequence | RNAcompete 7-mer binding Z-score
1 | ACUUUAG | -0.665
2 | AUGCCAC | -0.62
3 | UCCAGAA | -0.633
4 | GUAGGAU | 2.49
5 | GAUUAGU | 0.465
6 | UUAUCAC | -0.558
7 | UGUACAU | -0.422
8 | UUCCGGA | -0.428
9 | GUUUAUU | -0.526
10 | ACAAAGG | 1.64
11 | UAACUCA | -0.552
12 | GCUCAAA | -0.266
13 | CCGAUUU | -0.974
14 | CACAGGU | 0.625
15 | GGGGCCG | 1.12
16 | ACCCUAU | -0.909
17 | UGCUCAU | -0.639
18 | CAGCUCC | -0.724
19 | GACACGA | -0.223
20 | GAUAUCG | -0.00571
21 | CUAGCAC | -0.636
22 | UGGUAAG | 2.11
23 | GCGAUCA | -0.178

Row | Sequence | RNAcompete 7-mer binding Z-score
24 | GUCGAUG | 0.225
25 | UGCCCAG | -0.5
26 | AGGAGGA | 2.25
27 | AGCCGUA | -0.646
28 | CGAGGAU | 1.35
29 | CGAUGAC | -0.311
30 | UAUGAAU | 0.00404
31 | AUUCUAU | -0.73
32 | CCUCGAG | -0.649
33 | UAGAGGC | 0.722
34 | CGACUCG | -0.519
35 | ACAGGAG | 2.44
36 | CCGAACA | -0.662
37 | CUUCGCC | -0.746
38 | CGUACCU | -0.854
39 | UCUCGUA | -0.795
40 | GCGUGCG | 0.703
41 | AGGGUCA | 1.14
42 | CCACACC | -0.288
43 | GUGAACC | -0.00246
44 | AUGCUGG | 0.768
45 | AGACCGU | -0.958
46 | CUGGUUG | 0.657

Row | Sequence | RNAcompete 7-mer binding Z-score
47 | AAUUACC | -0.831
48 | UACCAUA | -0.704
49 | CGGUUAU | 0.115
50 | GUCCAGA | -0.474
51 | CGUGGCG | 1.11
52 | AGUUAUU | -0.6
53 | CUUAUAU | -0.737
54 | CCUGGGC | 0.436
55 | GAACAGG | 2.75
56 | GCACGUU | -0.184
57 | GUUCAGU | -0.214
58 | UCAGAUA | -0.357
59 | AAUAGCG | 0.176
60 | AAUACUC | -0.639
61 | CAAAUAG | -0.21
62 | CGCUAAU | -0.597
63 | CACUUAC | -0.737
64 | GCGGGGC | 2.47
65 | AUAGAUA | -0.0999
66 | CGGAUUA | 0.443
67 | AUCCCCA | -0.701
68 | GUUACGC | -0.0187
69 | GAUAGAA | 0.335

Row | Sequence | RNAcompete 7-mer binding Z-score
70 | GUCUAUG | -0.292
71 | CCGAGUA | -0.633
72 | AUGUAAU | -0.165
73 | UAUGGAA | 1.22
74 | CUCCUGG | -0.269
75 | UCGAUUC | -0.72
76 | GCCGACA | -0.36
77 | UGCUCCG | -0.558
78 | CGUUAGU | -0.298
79 | AUCGAUG | -0.0999
80 | UGGAAGG | 4.12
81 | GCGGGAA | 2.66
82 | CUAGAGU | -0.288
83 | CAACUCU | -0.928
84 | CCCCUAC | -0.513
85 | CCAUUCA | -0.896
86 | GACGAUC | -0.454
87 | CAUGGUC | 0.137
88 | AGUGUCG | 0.0138
89 | AAGGGCG | 3
90 | GAUCGGU | 0.602
91 | UGCGGAA | 1.25
92 | UUAUUCU | -0.828

Row | Sequence | RNAcompete 7-mer binding Z-score
93 | CAGUCAG | 0.082
94 | AAUUAAC | -0.435
95 | AUCCAAU | -0.694
96 | CGCUGAA | -0.396
97 | CAGUCCA | -0.578
98 | ACCUACU | -0.746
99 | GUCGAGA | -0.0414
100 | UCUAGCU | -0.769
101 | UGAAGAC | -0.0999
102 | AUUUGUG | -0.191
103 | AUGAAUG | 0.849
104 | GCACGAA | -0.0544
105 | CUCGGAA | -0.0934
106 | CUAAAAU | -0.529
107 | UGCGUGC | -0.34
108 | UAUCGAC | -0.701
109 | GCCUAUU | -0.834
110 | CUUGAUC | -0.808
111 | UCUCACG | -0.61
112 | AACCUCG | -0.704
113 | GGGUAAG | 4.39
114 | CGUCAAG | -0.145
115 | CCGAAAG | -0.578

Row | Sequence | RNAcompete 7-mer binding Z-score
116 | CUCGGAG | -0.022
117 | UGGAGCA | 2.13
118 | CACACAA | -0.587
119 | GCACCGU | -0.347
120 | CGGGUCC | 0.729
121 | AAAUACG | -0.188
122 | UACUUGC | -0.759
123 | AUAUCUG | -0.539
124 | CUAUGAC | -0.698
125 | AUGCCUA | -0.766
126 | GCCAAUA | -0.607
127 | UCGCACU | -0.565
128 | ACAGGUC | 0.03
129 | AGUGGGA | 4.13
130 | CGGGGGC | 2.25
131 | CUAAGUG | -0.22
132 | UCAAUCC | -0.72
133 | CAGACGG | 0.709
134 | GCUCUAA | -0.613
135 | AGUCAAU | -0.383
136 | GACGCAG | 0.0593
137 | AUGCCGG | -0.132
138 | CAUCUAU | -0.769

Row | Sequence | RNAcompete 7-mer binding Z-score
139 | AGGGCGG | 2.1
140 | GAUAAAG | 1.22
141 | GUCCUAU | -0.675
142 | UGCCCGC | -0.191
143 | ACGGAUC | -0.0544
144 | GUGGUAU | 1.43
145 | CCGAGAU | -0.392
146 | UUCUUUA | -0.802
147 | CUUUGUC | -0.922
148 | UCCACAC | -0.639
149 | CAAUUUG | -0.782
150 | GGUCUUG | -0.11
151 | AUACUCU | -0.818
152 | CACCACG | -0.0187
153 | AGGCCCU | -0.88
154 | UCUUGUA | -0.724
155 | UAAACGA | -0.37
156 | UCCGUAU | -0.837
157 | CGUUAUG | -0.214
158 | CCUCAAU | -0.86
159 | UGCAAUU | -0.431
160 | UGGAGGC | 1.96
161 | ACAUUCC | -0.789

Row | Sequence | RNAcompete 7-mer binding Z-score
162 | CUCCUCC | -0.558
163 | AUUUCGA | -0.72
164 | AUUAUCG | -0.509
165 | GUCGCCU | -0.298
166 | UUGCCUC | -0.733
167 | CGUAGAG | 0.381
168 | AGCAGCC | -0.461
169 | CACUUUA | -0.789
170 | GUCUGAA | -0.604
171 | AGUCACG | 0.0138
172 | UCGCGCG | -0.191
173 | GCCGAGG | 0.543
174 | CCCCCUU | -0.431
175 | CGUAACC | -0.681
176 | AUAAAUG | -0.103
177 | UCACUCG | -0.561
178 | UGAGCGU | 0.231
179 | CAGCAGU | -0.269
180 | CCACGAA | -0.418
181 | AGAAUCU | -0.766
182 | CACGCCU | -0.649
183 | UGGUACU | 0.277
